Results reported in PubChem BioAssay AID1963576 (National Center for Advancing Translational Sciences (NCATS), 2024).
The whole screen tested about 46,000 compounds, of which about 60 (0.1%) were called active. Inconclusive results (about 3%) are left out. Calls follow the shape of the dose curve; as a rule, active = well fitted inhibition curve with a large enough effect; inconclusive = small, poorly fitted or top-dose-only effect; inactive = no such curve, though single readings can be large or run the other way. The list shows a part of the results.

Assay: Primary qHTS assay for Inhibitors of ovarian cancer metastasis using an organotypic tumor microenvironment (TME) model. Also: nearly all actives have a fitted effect of over 65% in size.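 As to activity change, negative = inhibition: plate controls were DMSO wells for no effect and tomatine positive control wells for full effect.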
Conditions: SKOV3ip1-GFP adhesion/invasion on 3D omental model, fluorescence; series mostly up to 45.8 µM; activity change, negative = inhibition: at the top concentration
Outline: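 Primary human omental fibroblast/mesothelial 3D culture pre-formed 48 h. SKOV3ip1-GFP cells added with compounds (0.36-46 umol/L), incubated 2 h RT/16 h 37 C, fixed; GFP cells quantified at 488/509 nm.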

| Structure (SMILES) | activity change, negative = inhibition | outcome |
| --- | --- | --- |
| Cc1ccc(Cn2c(=O)c3cccnc3n(CC(=O)Nc3cccc(C(F)(F)F)c3)c2=O)cc1 | inactive: -2.89% |  |
| NS(=O)(=O)c1ccc(CCNC(=O)C2COc3ccccc3C2)cc1 (centres undefined) | inactive: 2.46% |  |
| CCc1ccc(C2CC(=O)c3c([nH]c(C(=O)OCC4CCCCC4)c3C)C2)cc1 (centres undefined) | inactive: 8.23% |  |
| Cc1cc(OCC(=O)Nc2ccc(-c3nc4cc(Cl)ccc4o3)cc2)cc(C)c1Cl | inactive: 1.25% |  |
| CCOc1ccc(/C=C/c2nc(C#N)c(N3CCN(c4ccc(OC)cc4)CC3)o2)cc1 | inactive: 8.94% |  |
| CCC(=O)N1CCc2cc(Br)cc(S(=O)(=O)CCC(=O)NCCc3ccc(OC)c(OC)c3)c21 | inactive: -2.21% |  |
| Cn1cc(S(=O)(=O)N2CCCCCC2)cc1C(=O)N1CCN(c2ccc(F)cc2)CC1 |  | inactive |
| COc1ccc(NS(=O)(=O)c2cc3[nH]c(=O)c(=O)[nH]c3cc2C)cc1Cl | inactive: -0.794% |  |
| CCc1cccc(NC(=O)Nc2ccc3c(c2)N(C)C(=O)c2ccccc2S3)c1 | inactive: -11% |  |
| CCOc1ccc(NC(=O)C(=O)NCCc2csc(-c3ccc(F)cc3)n2)cc1 |  | inactive |
| COc1cc(OC)c(NC(=O)CN2C(=O)CCn3nc(-c4cccn4C)cc32)cc1Cl | inactive: 2.12% |  |
| CCN(CC)CC(C)CNC(=O)CN1C(=O)CSc2ccc(S(=O)(=O)N3CCOCC3)cc21 (centres undefined) | inactive: -7.93% |  |
| CN(C(=O)C1CCCN(c2ncnc3c2nc2n3CCCCC2)C1)c1ccccc1F (centres undefined) | inactive: 4.68% |  |
| CC(C)OCCCn1c(SCc2ccccc2C#N)nc2c(sc3ccccc32)c1=O | inactive: -5.06% |  |
| Cc1ccc(NC(=O)Cc2c(C(=O)O)c(C)cn2C)cc1Cl | inactive: 2.65% |  |
| Cc1c(C)c2c(c(C)c1O)CCC(C)(COc1ccc(CC3SC(=O)NC3=O)cc1)O2 (centres undefined) | inactive: -5.68% |  |
| CCSc1ncc(Cl)c(C(=O)Nc2nc3ccc(OC)cc3s2)n1 | inactive: 3.11% |  |
| COc1ccc(CNC(=O)Cc2c(C)c3c(cc(C)c4c(C)c(C)oc43)oc2=O)cc1 | inactive: -2.94% |  |
| Cc1ccc(N(Cc2cccs2)C(=O)c2ccc(Br)o2)cc1 | inactive: -1.35% |  |
| Cc1cc(=O)n2nc(N3CCC(C(=O)Nc4ccc(C)c(Cl)c4)CC3)sc2n1 |  | inactive |
| Cn1nc(C(=O)NCc2ccc(Cl)cc2)c2c1-c1ccccc1SC2 | inactive: 6.22% |  |
| CCCCC(CC)CNC(=O)c1ccc2c(=O)n(Cc3ccc(OC)cc3)c(=O)[nH]c2c1 (centres undefined) |  | inactive |
| COc1ccc(CNC(=O)CCS(=O)(=O)c2ccc3c(c2)oc(=O)n3C)cc1 | inactive: 2.23% |  |
| CCOc1cc(C2c3c(-c4ccc(Br)cc4)n[nH]c3C(=O)N2c2ccc(Cl)cc2)ccc1O (centres undefined) | inactive: -6.89% |  |
| CCc1nonc1NC(=O)c1oc2ccccc2c1C | inactive: -27.5% |  |

| Structure (SMILES) | activity change, negative = inhibition | outcome |
| --- | --- | --- |
| CCOC(=O)N1CCC(NC(=O)c2ccc3c(c2)N(Cc2ccc(F)cc2)C(=O)c2ccccc2S3(=O)=O)CC1 | inactive: 2.2% |  |
| Cc1ccc(CNC(=O)c2ccc3c(O)c(S(=O)(=O)c4ccccc4)c(=O)[nH]c3c2)cc1 | inactive: -7.81% |  |
| O=C(CSc1nc2ccccc2nc1Cc1ccc(Cl)cc1)NCCc1ccccc1 | inactive: 9.13% |  |
| CCOc1ccccc1NC(=O)c1nnn(CC(=O)Nc2ccc(OC)c(OC)c2)c1N |  | inactive |
| CCOc1ccc(NC(=O)C(NS(=O)(=O)c2ccc3c(c2)CCN3C(C)=O)C(C)C)cc1 (centres undefined) | inactive: -2.15% |  |
| COc1ccc(CNC(=O)c2nn(-c3ccccc3C)nc2CO)cc1 | inactive: 3.89% |  |
| Nc1c(-c2nc(-c3cccs3)no2)nnn1-c1cccc(Cl)c1 | inactive: 16.7% |  |
| COc1ccccc1-c1cc(C(=O)N2CCCCC2C)no1 (centres undefined) |  | inactive |
| CCCCC(=O)Nc1ccc2nc(SCC(=O)N3CCCC3)sc2c1 | inactive: -2.04% |  |
| CN[C@@H]1CN(c2ccc3c(=O)c(C(=O)O)cn(-c4nccs4)c3n2)C[C@@H]1OC | inactive: -4.73% [at 23.2 µM] |  |
| COc1ccc(OC)c(C(C)NC(=O)Cn2c(=O)cc(C)c3c(C)nn(-c4ccc(C)cc4)c32)c1 (centres undefined) |  | inactive |
| CC=C(C(=CC)c1ccc(O)cc1)c1ccc(O)cc1 | inactive: -8.67% |  |
| COc1cccc(CNC(=O)C(NS(=O)(=O)c2ccc3c(c2)CCN3C(C)=O)C(C)C)c1 (centres undefined) | inactive: -8.13% |  |
| CCc1ccc(Nc2ncnc3c2cnn3-c2cc(Cl)ccc2C)cc1 | inactive: 3.22% |  |
| CCCn1c2ccccc2c2cnn(CC(=O)NCCc3ccccc3)c(=O)c21 | inactive: 16.8% |  |
| COC(=O)c1ccc(Cn2c(=O)cc(C(F)(F)F)c3c(C)nn(C)c32)cc1 | inactive: -4.3% |  |
| Cc1cccc(-c2nc(Cn3c(=O)cc(-c4ccccc4)c4c(C)nn(C)c43)c(C)o2)c1 | inactive: 3.44% |  |
| CCn1cc(C(=O)OCC(=O)Nc2ccc(F)cc2F)c(=O)c2ccc(C)nc21 | inactive: -0.353% |  |
| O=C(NCc1ccc(Cl)cc1)C1CCCN(c2nc3ccccc3n3cccc23)C1 (centres undefined) | inactive: -1.77% |  |
| O=C(Cn1c2ncccc2c(=O)n1-c1ccccc1)Nc1ccc(F)c(F)c1 | inactive: 4.22% |  |
| CCN(c1ccc(OC)cc1)S(=O)(=O)c1ccc2[nH]c(=O)ccc2c1 | inactive: 7.34% |  |
| CCOc1ccc(S(=O)(=O)N(CC(=O)NCCSc2ccccc2)c2ccccc2)cc1 | inactive: 18.4% |  |
| O=C(CSc1nccn1Cc1ccccc1)NCc1ccccc1Cl | inactive: -6.69% |  |
| CCCn1ccc2c(OCC(=O)NCc3ccccc3Cl)cccc2c1=O | inactive: 6.05% |  |
